Experimental data reported in PubChem BioAssay AID1745853 (National Center for Advancing Translational Sciences (NCATS), 2022).
This is one part of the list. Further columns of the screen follow, without active or inactive calls.

What was measured:
Experiment in all cases: Primary Screen for Target Class Profiling of Small Molecule Inhibitors of Methyltransferases
[1] = target: Glycine N-methyltransferase (Homo sapiens) (UniProt Q14749); conditions: purified enzyme, MTase-Glo SAH luminescence; measured here: GNMT inhibition; at 40 µM; stronger effect = lower value
Description: (§1) PI: Matthew D. Hall Ph.D. and Quinlin M. Hanson Ph.D.
(§2) National Center for Advancing Translational Sciences (NCATS)
(§3) National Institute of Health (NIH), Rockville, MD
(§4) Target class profiling (TCP) is a chemical biology approach amenable to investigating understudied biological targets. TCP is achieved by developing a generalizable assay platform and applying it to screen a curated set of compound libraries against representative members of a target class. Small molecule methyltransferases (SMMTase) are a subclass of methyltransferase that act on metabolites to modulate signaling pathways, metabolize xenobiotics, or balance the available methyl pool. We screened four curated libraries totaling 27,574 unique compounds against the SMMTases nicotinamide N-methyltransferase (NNMT), phenylethanolamine N-methyltransferase (PNMT), histamine N-methyltransferase (HNMT), glycine N-methyltransferase (GNMT), catechol O-methyltransferase (COMT), and guanidinoacetate N-methyltransferase (GAMT). The data generated by this TCP can be leveraged for informed tool molecule development. For example, in the associated publication we identified a chemotype of HNMT-selective inhibitors. Additionally, we identified a putative SMMTase-selective inhibitor with potential as a tool molecule for studying broader methyltransferase biology.
(§5) High-through put screening assays were developed at the National Center for Advancing Translational Science (NCATS) for the enzymes NNMT, PNMT, HNMT, GNMT, COMT, and GAMT. Enzymatic activity was measured as a function of SAM cofactor conversion using the MTase Glo kit (Promega) for all enzymes. All assays were performed in 1536-well format with substrates and SAM concentrations at KM values. Enzyme concentration and assay timing were optimized for 10-20% SAM conversion. Initial screening of 27,574 compounds was done as single-point assays using the highest compound concentration (40 uM). […] These compounds were replated in 11-point dose response and assayed against NNMT, PNMT, HNMT, GNMT, COMT, GAMT, and a counter-assay. The IC50 and efficacy (maximal response) values were determined for each dose-response curve. These values are also accounted for in the area under the curve (AUC) values.
(§6) PROTOCOL TABLE (as described by Inglese J, Shamu CE and Guy RK. 2007)
(§7) SEQUENCE No. (e.g., 1, 2, 3, etc.); […] (e.g., Cells, Incubation, Reagent, etc.); VALUE; DESCRIPTION.
(§8) 1; Reagent; 2 uL; SMMTase Enzyme (2x) in reaction buffer, columns 1- 48.
(§9) 2; Reagent; 1 uL; SAM (4x) in reaction buffer, columns 1-48.
(§10) 3; Controls; 23 nL; DMSO in column 4; sinefungin in DMSO (0 uM - 40 uM) in 7-point 1:2 dilution series (n = 2) in column 2.
(§11) 4; Compounds; 23 nL; Columns 5-48.
(§12) 5; Reagent; 1 uL; Substrate (4x) in reaction buffer, columns 2-48.
(§13) 6; Time; 20-30 min; Incubation.
(§14) 7; Reagent; 1 uL; MTase-Glo reagent (5X), columns 1-48.
(§15) 8; Time; 30 min; Incubation.
(§16) 9; Reagent; 5 uL; MTase-Glo Detection reagent, columns 1-48.
(§17) 10; Time; 30 min; Incubation, luminescence evolution.
(§18) 11; Detection; Luminescence; ViewLux uHTS Microplate Imager (PerkinElmer).
(§19) NOTES (numbers refer to Sequence numbers above)
(§20) 1, 2, 5. White Medium Binding Greiner 1536-well plates (Cat #789175-F, Greiner Bio-One, Monroe, NC); Reaction buffer: 50 mM Tris, pH 8.0, 3 mM MgCl2, 1 mM EDTA, 50 mM NaCl, 1 mM DTT, and 0.1 mg/mL BSA. Evaporation was prevented by covering assay plates with metal lids containing holes to allow gas diffusion.
(§21) 1. Six SMMTase were profiled: HNMT, GNMT, PNMT, COMT, NNMT, GAMT
(§22) 5. The corresponding substrate was used for each enzyme: HNMT - 5.3 uM Histamine; GNMT - >500 uM Glycine; PNMT - 16.2 uM Norephinephrine; COMT - 13.7 uM Norephinephrine; NNMT - 3.8 uM Nicotinamide; GAMT - 2.5 uM Guanidinoacetate.6, 8, 10. Room temperature
(§23) 6. Final reaction conditions: 10 nM COMT, 5 uM SAM, 15 uM norepinephrine, 50 mM Tris, pH 8.0, 3 mM MgCl2, 1 mM EDTA, 50 mM NaCl, 1 mM DTT, and 0.1 mg/mL BSA; refer to tables 2 and S1 for specific timing.
8. […]

[2] = target: Guanidinoacetate N-methyltransferase (Homo sapiens) (UniProt Q14353); conditions: purified enzyme, MTase-Glo SAH luminescence; measured here: GAMT inhibition; at 40 µM; stronger effect = lower value
Description: as §1, §2, §3, §4, §5, §6, §7, §8, §9, §10, §11, §12, §13, §14, §15, §16, §17, §18, §19, §20, §21, §22, §23
8. […]

[3] = target: Histamine N-methyltransferase (Homo sapiens) (UniProt P50135); conditions: purified enzyme, MTase-Glo SAH luminescence; measured here: HNMT inhibition; at 40 µM; stronger effect = lower value
Description: as §1, §2, §3, §4, §5, §6, §7, §8, §9, §10, §11, §12, §13, §14, §15, §16, §17, §18, §19, §20, §21, §22, §23
8. […]

[4] = target: Nicotinamide N-methyltransferase (Homo sapiens) (UniProt P40261); conditions: purified enzyme, MTase-Glo SAH luminescence; measured here: NNMT inhibition; at 40 µM; stronger effect = lower value
Description: as §1, §2, §3, §4, §5, §6, §7, §8, §9, §10, §11, §12, §13, §14, §15, §16, §17, §18, §19, §20, §21, §22, §23
8. […]

[5] = target: Phenylethanolamine N-methyltransferase (Homo sapiens) (UniProt P11086); conditions: purified enzyme, MTase-Glo SAH luminescence; measured here: PNMT inhibition; at 40 µM; stronger effect = lower value
Description: as §1, §2, §3, §4, §5, §6, §7, §8, §9, §10, §11, §12, §13, §14, §15, §16, §17, §18, §19, §20, §21, §22, §23
8. […]
% is scaled to controls: 0 for no effect and ±100 for the full control effect.

## Cc1ccccc1CN1CC(=O)N(Cc2ccc(F)cc2)c2ccccc2S1(=O)=O
[1]
  activity change, negative = inhibition: 11%
[2]
  activity change, negative = inhibition: 0.797%
[3]
  activity change, negative = inhibition: 16.7%
[4]
  activity change, negative = inhibition: -4.67%
[5]
  activity change, negative = inhibition: 2.14%

## CCCCNC(=O)CCc1nnc2n(CCc3ccccc3)c(=O)c3ccccc3n12
[1]
  activity change, negative = inhibition: 1.33%
[2]
  activity change, negative = inhibition: 0.429%
[3]
  activity change, negative = inhibition: 9.03%
[4]
  activity change, negative = inhibition: 11.5%
[5]
  activity change, negative = inhibition: -0.96%

## CC(C)CCNc1nc2c(-c3ccccc3)nnn2c2ccccc12
[1]
  activity change, negative = inhibition: -6.74%
[2]
  activity change, negative = inhibition: -3.71%
[3]
  activity change, negative = inhibition: -7.93%
[4]
  activity change, negative = inhibition: -11.9%
[5]
  activity change, negative = inhibition: -9.94%

## COCC1CN(C)CC12CCN(C(=O)COc1cccc(C)c1)CC2 (stereo not given)
[1]
  activity change, negative = inhibition: -3.93%
[2]
  activity change, negative = inhibition: -2.9%
[3]
  activity change, negative = inhibition: -12.1%
[4]
  activity change, negative = inhibition: -2.36%
[5]
  activity change, negative = inhibition: 1.85%

## C=CCn1c(=O)c2ccc(C(=O)NC(C)CC)cc2n2c(=O)n(CC(=O)NC(C)CC)nc12 (stereo not given)
[1]
  activity change, negative = inhibition: -1.59%
[2]
  activity change, negative = inhibition: 3.23%
[3]
  activity change, negative = inhibition: -0.583%
[4]
  activity change, negative = inhibition: -6.95%
[5]
  activity change, negative = inhibition: -1.86%

## CCOCCCNC(=O)CNC(=O)C1(C)Cn2c(cc3ccccc32)C(=O)N1C (stereo not given)
[1]
  activity change, negative = inhibition: -4.29%
[2]
  activity change, negative = inhibition: 0%
[3]
  activity change, negative = inhibition: 0.857%
[4]
  activity change, negative = inhibition: -2.06%
[5]
  activity change, negative = inhibition: -1.65%

## Cc1ccc(N2C(=O)c3cc4oc(C)cc4n3CC2(C)C(=O)NC2CCCCCC2)cc1 (stereo not given)
[1]
  activity change, negative = inhibition: 3.19%
[2]
  activity change, negative = inhibition: 0.72%
[3]
  activity change, negative = inhibition: 9.98%
[4]
  activity change, negative = inhibition: 12.2%
[5]
  activity change, negative = inhibition: 5.41%

## O=C1Nc2ccccc2CC12CCCN(C1COC1)C2 (stereo not given)
[1]
  activity change, negative = inhibition: -3.5%
[2]
  activity change, negative = inhibition: -3.77%
[3]
  activity change, negative = inhibition: -0.452%
[4]
  activity change, negative = inhibition: -1.84%
[5]
  activity change, negative = inhibition: -3.7%

## COc1ccc(-c2nnn3c2nc(NCCc2ccc(OC)c(OC)c2)c2ccccc23)cc1
[1]
  activity change, negative = inhibition: -32.3%
[2]
  activity change, negative = inhibition: 10.7%
[3]
  activity change, negative = inhibition: 7.6%
[4]
  activity change, negative = inhibition: 11.3%
[5]
  activity change, negative = inhibition: -1.27%

## C=CCn1c(=O)c2ccc(C(=O)NC(C)C)cc2n2c(=O)n(CC(=O)Nc3ccccc3)nc12
[1]
  activity change, negative = inhibition: 4.24%
[2]
  activity change, negative = inhibition: 0%
[3]
  activity change, negative = inhibition: 0.984%
[4]
  activity change, negative = inhibition: 1.96%
[5]
  activity change, negative = inhibition: 4.22%

## CC(C)c1noc(-c2ccn3c(CNC(=O)c4ccoc4)nnc3c2)n1
[1]
  activity change, negative = inhibition: -2.52%
[2]
  activity change, negative = inhibition: -0.894%
[3]
  activity change, negative = inhibition: 3.13%
[4]
  activity change, negative = inhibition: -5.7%
[5]
  activity change, negative = inhibition: 16.1%

## CN(C(=O)c1ccccc1)C1CCOc2ccccc21 (stereo not given)
[1]
  activity change, negative = inhibition: -5.56%
[2]
  activity change, negative = inhibition: -13%
[3]
  activity change, negative = inhibition: -3.72%
[4]
  activity change, negative = inhibition: -20.3%
[5]
  activity change, negative = inhibition: -18.5%

## O=C(NCC1CCCO1)c1cc(-c2ccccc2F)cc2c1OCCN2Cc1cccnc1 (stereo not given)
[1]
  activity change, negative = inhibition: -15.8%
[2]
  activity change, negative = inhibition: -3.94%
[3]
  activity change, negative = inhibition: -4.84%
[4]
  activity change, negative = inhibition: -13.7%
[5]
  activity change, negative = inhibition: -2.97%

## COCCCNC(=O)C1(C)Cn2nc(-c3ccccc3)cc2C(=O)N1c1ccc(OC)cc1 (stereo not given)
[1]
  activity change, negative = inhibition: 3.37%
[2]
  activity change, negative = inhibition: 0%
[3]
  activity change, negative = inhibition: 5.04%
[4]
  activity change, negative = inhibition: 7.91%
[5]
  activity change, negative = inhibition: -0.19%

## CCC(C)NC(=O)c1ccc2c(=O)n(C)c3nn(CC(=O)c4cccc(Cl)c4)c(=O)n3c2c1 (stereo not given)
[1]
  activity change, negative = inhibition: 1.93%
[2]
  activity change, negative = inhibition: 0%
[3]
  activity change, negative = inhibition: 2.51%
[4]
  activity change, negative = inhibition: -6%
[5]
  activity change, negative = inhibition: 4.42%

## CC1(C(=O)NC2CCCCC2)Cn2c(cc3ccccc32)C(=O)N1Cc1cccs1 (stereo not given)
[1]
  activity change, negative = inhibition: -1.15%
[2]
  activity change, negative = inhibition: 0%
[3]
  activity change, negative = inhibition: 2.49%
[4]
  activity change, negative = inhibition: -0.232%
[5]
  activity change, negative = inhibition: -11.2%

## Cc1nc(C#Cc2ccnc(Cl)c2)c(C)n1-c1ccc(F)cc1
[1]
  activity change, negative = inhibition: -41.1%
[2]
  activity change, negative = inhibition: -19.8%
[3]
  activity change, negative = inhibition: -47.5%
[4]
  activity change, negative = inhibition: -51.1%
[5]
  activity change, negative = inhibition: -41.5%

## COc1ccc(C2(C(=O)N3CCOCC3)CCOCC2)cc1
[1]
  activity change, negative = inhibition: -1.29%
[2]
  activity change, negative = inhibition: -2.81%
[3]
  activity change, negative = inhibition: -1.92%
[4]
  activity change, negative = inhibition: -1.8%
[5]
  activity change, negative = inhibition: 0.267%

## Cc1ccc(C)c(N2CCN(C(=O)c3ccc4c(=O)nc5c(-c6cccc(F)c6)n[nH]n5c4c3)CC2)c1
[1]
  activity change, negative = inhibition: -26.6%
[2]
  activity change, negative = inhibition: -1.81%
[3]
  activity change, negative = inhibition: -12.6%
[4]
  activity change, negative = inhibition: -18.2%
[5]
  activity change, negative = inhibition: -9.01%
